The whole screen tested about 420,000 compounds, of which about 64,000 (15%) were called active. Inconclusive means that the source gave no clear call. Such entries were picked first, then a sample of the others. Calls follow the shape of the dose curve; as a rule, active = well fitted inhibition curve with a large enough effect; inconclusive = small, poorly fitted or top-dose-only effect; inactive = flat fitted curve, though single readings scatter. No potency is given beside an inconclusive call; the fits are too rough.
Experiment: qHTS for Inhibitors of human tyrosyl-DNA phosphodiesterase 1 (TDP1): qHTS in cells in absence of CPT; also: nearly all actives have a fitted effect of over 55% in size
Conditions: DT40 Tdp1-/- hTDP1 cells, no CPT, ATP luminescence, 48 h; activity change, negative = growth inhibition: at 46.2 µM (top of the series) unless noted
Method in brief: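 Seeded 400 DT40-hTDP1 cells/well (vehicle DMSO, no 20 nM CPT); pinned compounds; ≥48 hr at 37 °C; CellTiter-Glo luminescence as viability measure.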
With `Cn1c(SCC(=O)NNC(=O)Nc2ccccc2)nnc1-c1ccccc1` the “activity change, negative = growth inhibition” value was inactive: 0.527%. In the case of `COc1ccc(CCNC(=O)c2c[nH]c3ccccc3c2=O)cc1OC`, the Potency is reported as inconclusive [inhibitor, single point]. In the case of `O=S(Cc1ccccc1)CC(O)(c1ccc(Cl)cc1)c1ccc(Cl)cc1` (stereo not given), the activity change, negative = growth inhibition is reported as inconclusive: -33.6% [inhibitor]. For `O=C(/C=C/c1cccs1)N1CCN(c2ccc(O)cc2)CC1`, the Potency was inconclusive [inhibitor, single point]. In the case of `CC1CCCN(C(=O)C2CCN(S(=O)(=O)c3cccs3)CC2)C1` (stereo not given), the “activity change, negative = growth inhibition” value is reported as inactive: -16.8%. For `COc1ccc(N2CCN(C(=O)CN(CCc3ccccc3)S(C)(=O)=O)CC2)cc1`, the Potency was inconclusive [inhibitor, partial curve]. In the case of `Oc1ccccc1N1CCN(CC(O)COC2CCCc3ccccc32)CC1` (stereo not given), the Potency is reported as inconclusive [inhibitor, single point]. For `Cc1ccc(C(=O)O)cc1NC(=O)c1nsc2ccccc12`, the “activity change, negative = growth inhibition” value was inactive: -0.0169%. For `CC1CCN(C(=S)Nc2ccc(F)cc2)CC1`, the Potency was inconclusive [inhibitor, single point]. For `O=C(COc1ccccc1)NCC(=O)N1CCCC1`, the “activity change, negative = growth inhibition” value was inactive: -13.5%. For `COc1ccc(CO[C@@H]2O[C@H](CO)[C@@H](O)[C@H](O)[C@H]2NC(C)=O)cc1OC`, the “activity change, negative = growth inhibition” value was inactive: 7.78%. For `O=C(CCNC(=O)C1CCN(S(=O)(=O)c2ccc(F)cc2)CC1)Nc1ccccc1`, the “activity change, negative = growth inhibition” value was inactive: 8.39%. In the case of `Cc1ccc(NC(=O)C(=O)NCC(c2cccnc2)N2CCN(Cc3ccccc3)CC2)cc1Cl` (stereo not given), the Potency is reported as active: 7.31 µM. With `CC(=O)c1ccc(NC(=O)c2cc(Cl)sc2Cl)cc1` the Potency was inconclusive [inhibitor, partial curve, poor fit]. For `O=C(CCCc1nc(-c2ccccc2Cl)no1)N1CCOCC1`, the “activity change, negative = growth inhibition” value was inactive: -1.55%. For `CCOc1ccccc1NC(=O)c1c2c(nc3ccccc13)C(=O)N(C1CCCCC1)C2`, the Potency was active: 5.8 µM. In the case of `CC(C)CNC(=O)C1CCN(Cc2ccc(OCc3ccccc3)cc2)CC1`, the Potency is reported as inconclusive [inhibitor, single point]. With `COc1ccc(-c2nc3n(n2)C(c2ccccc2OC)C(C(=O)Nc2cccnc2)=C(C)N3)cc1` (stereo not given) the activity change, negative = growth inhibition was inconclusive: -30.4% [inhibitor]. In the case of `CCOC(=O)c1cc(S(=O)(=O)NC2CCCCC2)cn1C`, the Potency is reported as inconclusive [inhibitor, single point]. In the case of `Cc1ccc(C)c(OCCC(=O)OCC(=O)Nc2cccc(S(=O)(=O)N3CCCC3)c2)c1`, the “activity change, negative = growth inhibition” value is reported as inactive: -27.8%. With `Cc1cc(C)c(OCC(=O)N/N=C/c2ccc3c(c2)OCO3)c(C)c1` the Potency was active: 5.8 µM. With `COc1ccc(S(=O)(=O)N(C)C[C@H]2OCCCC[C@H](C)Oc3ccc(NC(=O)Nc4ccc(F)cc4)cc3C(=O)N([C@H](C)CO)C[C@H]2C)cc1` the “activity change, negative = growth inhibition” value was inactive: -11.3%. For `O=C(C1CCC(CNS(=O)(=O)c2ccc(Br)s2)CC1)N1CCN(c2ccc(F)cc2)CC1` (stereo not given), the Potency was active: 4.11 µM. With `O=C(Nc1cccc(Cl)c1)N1CC2CCCN2c2ccccc21` (stereo not given) the Potency was inconclusive [inhibitor, single point]. For `CCc1ccc(/C=C2/C(=O)N(C)C(=S)N2CC(=O)OC)s1`, the “activity change, negative = growth inhibition” value was inactive: -20.7%. For `Cc1ccc(Cc2cnc(NC(=O)/C(C#N)=C/c3ccc(-c4ccc([N+](=O)[O-])cc4)o3)s2)cc1`, the Potency was inconclusive [inhibitor, single point]. With `CC1(C)CC(=O)C2=C(C1)N(c1ccc(F)cc1)C(N)=C(C#N)C2c1cccs1` (stereo not given) the Potency was inconclusive [inhibitor, single point]. With `Cc1ccc(Nc2nc(N)c([N+](=O)[O-])c(NCc3ccco3)n2)cc1` the Potency was inconclusive [inhibitor, single point]. For `CCOc1ccc(C(=O)Nc2ccc3oc(-c4ccc(C)cc4C)nc3c2)cc1Br`, the Potency was active: 13 µM. With `Cc1ccc(N2CN(CCc3ccccc3)CNC2=S)cc1` the “activity change, negative = growth inhibition” value was inactive: -23.6%. In the case of `O=C(CCc1ccccc1)Nc1cccc(NC(=O)CCc2ccccc2)c1`, the Potency is reported as inconclusive [inhibitor, single point]. For `c1ccc(OCCOCCSc2ncccn2)cc1`, the “activity change, negative = growth inhibition” value was inactive: -0.509%. In the case of `CC1CCc2c(sc(NC(=S)NC(=O)c3ccccc3)c2C#N)C1` (stereo not given), the Potency is reported as inconclusive [inhibitor, single point]. With `CN(C)CCC(=O)c1ccc(F)cc1` the Potency was active: 4.61 µM. With `CCO[C@H]1OC(C(=O)NCc2nc3ccccc3[nH]2)=C[C@@H](c2ccc(C(F)(F)F)cc2)[C@@H]1CCCO` the Potency was active: 16.4 µM. With `Cc1ccc2nc(-c3cccnc3)c(NC3CCCCC3)n2c1` the Potency was inconclusive [inhibitor, single point]. For `Cc1ccc(-c2ccc([C@H]3[C@@H]4C=CCC[C@@]4(C)C(=O)N3Cc3ccccc3)c(F)c2)cc1`, the Potency was inconclusive [inhibitor, partial curve]. With `O=C(NCCC1=CCCCC1)C(c1ccccc1)c1ccccc1` the Potency was inconclusive [inhibitor, single point]. With `CC[N+]1(CC)CC2CCC(C)(C1)C2(C)C` (stereo not given) the “activity change, negative = growth inhibition” value was inactive: 15.3%. For `O=c1cc(CN2CCCCC2)c2c(ccc3ccccc32)o1`, the Potency was inconclusive [inhibitor, single point]. In the case of `CC(C)c1ccc(/C=N/N2CCCCC2)cc1`, the activity change, negative = growth inhibition is reported as inconclusive: -34.4% [inhibitor]. With `CCC(CC)C(=O)N(C)c1c(C)nc2c(OCc3ccc(F)c(F)c3)cccn12` the Potency was active: 20.6 µM. With `Cc1ccc(S(=O)(=O)N2C[C@@H]3[C@H]4CC[C@H](C4)[C@@H]3[C@@H](C)C2CC(=O)c2ccccc2)cc1` (stereo not given in full) the Potency was active: 23.1 µM. In the case of `CCN(CC)c1ccc(/C=C/c2sc3ccccc3[n+]2CCCCI)cc1`, the Potency is reported as active: 0.447 µM. With `CCCCNC(=O)c1onc(CSc2ccc(F)c(F)c2)c1C(=O)NCCCC` the Potency was inconclusive [inhibitor, single point]. In the case of `CC(C)(C)c1cc(NC(=O)CSc2nnc(NCc3ccccc3)s2)n(-c2ccccc2)n1`, the activity change, negative = growth inhibition is reported as inconclusive: -31% [inhibitor]. In the case of `N#CCCCN1C(=O)C(=C(C#N)C#N)c2ccccc21`, the Potency is reported as inconclusive [inhibitor, single point]. With `COc1ccccc1C1C(C(=O)c2cc3ccccc3o2)=C(O)C(=O)N1CCN(C)C` (stereo not given) the activity change, negative = growth inhibition was inconclusive: -7.73% [inhibitor]. In the case of `COc1ccc(NC(=O)COC(=O)c2cc3c(s2)CCC3)cc1`, the Potency is reported as inconclusive [inhibitor, partial curve]. In the case of `COc1ccccc1N(CC(=O)N1CCOCC1)S(C)(=O)=O`, the “activity change, negative = growth inhibition” value is reported as inactive: 13.9%. For `O=c1oc(Nc2ccc(F)cc2)nc2ccccc12`, the activity change, negative = growth inhibition was inconclusive: -35.5% [inhibitor]. In the case of `Cc1ccc(S(=O)(=O)N2CCCC2)cc1C(=O)N1CCC(C)CC1`, the “activity change, negative = growth inhibition” value is reported as inactive: -21.1%. In the case of `Cc1ccc(C)c(N2CCN(C(=O)Cn3ncn4cccc4c3=O)CC2)c1`, the Potency is reported as inconclusive [inhibitor, single point]. For `CC(Oc1ccc(Cl)cc1)C(=O)Nc1cccc(S(=O)(=O)N2CCOCC2)c1` (stereo not given), the “activity change, negative = growth inhibition” value was inactive: -11.6%. In the case of `COc1ccc(N2CCN(C(=O)c3cc4ccccc4o3)CC2)cc1`, the “activity change, negative = growth inhibition” value is reported as inactive: -22.2%. For `Cc1nc2ccc(NC(=O)c3nn(C(C)C)c(=O)c4ccccc34)cc2s1`, the Potency was inconclusive [inhibitor, single point]. For `Nc1nc2ccccc2n1C(=O)c1cccs1`, the Potency was inconclusive [inhibitor, single point]. With `COc1cccc(-c2cnc(C(O)c3ccc(C)cc3C)[nH]2)c1` (stereo not given) the Potency was inconclusive [inhibitor, single point]. For `CCOC(=O)N1CCc2c(sc(NCc3ccc(N(CC)CC)cc3)c2C(=O)Nc2cc(OC)ccc2OC)C1`, the Potency was inconclusive [inhibitor, single point]. With `Cc1ccc([N+](=O)[O-])cc1NC(=O)/C=C/C(=O)O` the “activity change, negative = growth inhibition” value was inactive: 13.2%. For `CNc1nc(-c2cccc(C(=O)N(C)C)c2)cn2ccnc12`, the “activity change, negative = growth inhibition” value was inactive: -4.99%. For `Cc1cc(C)n(C(C)CC(=O)Nc2ccc(Cl)cc2C)n1` (stereo not given), the Potency was inconclusive [inhibitor, single point]. With `O=c1cnc2cnc(N3CCNCC3)nc2n1CCc1ccccc1` the “activity change, negative = growth inhibition” value was inactive: -23.6%. For `CC1(C(=O)NS(=O)(=O)Cc2ccccc2)CCN1C(=O)Cc1cc(F)ccc1F` (stereo not given), the “activity change, negative = growth inhibition” value was inactive: 7.72%. With `Cc1ccc(C(=O)Nc2ccc(Nc3ccccc3)cc2)c(Cl)c1` the Potency was inconclusive [inhibitor, partial curve, poor fit]. With `COc1cccc(CNC(=O)CCC2CCCN(c3cc(C)nc(N(C)C)n3)C2)c1` (stereo not given) the activity change, negative = growth inhibition was inconclusive: -34.8% [inhibitor]. With `C=CCn1c(SCC(=O)c2cc(C)n(C(C)COC)c2C)nc2sc(C)c(C)c2c1=O` (stereo not given) the Potency was active: 18.4 µM. In the case of `CCOC(=O)c1cn(Cc2ccccc2)c2cc(C)nn2c1=O`, the “activity change, negative = growth inhibition” value is reported as inactive: -22.9%. For `COc1ccc(NC(=O)CSc2ccc3nnc(-c4ccccn4)n3n2)cc1`, the “activity change, negative = growth inhibition” value was inactive: -8.77%. With `COc1cccc(-n2c(SC)nnc2C2CCN(Cc3cccc(OC)c3O)CC2)c1` the Potency was inconclusive [inhibitor, partial curve, poor fit]. In the case of `CCOC(=O)c1sc(-c2ccc(F)cc2)cc1NC(=O)Nc1ccccc1OC`, the Potency is reported as inconclusive [inhibitor, partial curve, poor fit]. For `O=C(c1cccc(F)c1)N1CCC2(CCCN(Cc3ccncc3)C2)CC1`, the Potency was inconclusive [inhibitor, single point]. For `O=[N+]([O-])c1ccc(NCCCNS(=O)(=O)c2ccccc2)c(Cl)c1`, the Potency was active: 16.4 µM. In the case of `N#C/C(=C\c1c[nH]c2ccccc12)C(=O)Nc1ncc(Cc2ccc(Cl)cc2Cl)s1`, the Potency is reported as active: 16.4 µM. For `COc1cc2c(cc1OC)/C(=C/C(=O)OCc1ccccc1)OC2`, the “activity change, negative = growth inhibition” value was inactive: -22%.
% is scaled to controls: 0 for no effect and ±100 for the full control effect; potency is read from the fitted curve at half-maximal effect; tags tell the direction and shape of the fitted curve.
